# Results published in PubChem BioAssay (NCATS).
# This list was built around the results that the source calls inconclusive (neither active nor inactive); the mix of calls is not that of the screen. For some of these results: Potencies of inconclusive entries are left out as doubtful fits. Calls of active or inactive are those of the source. The call rests on the fitted dose curve; in most records, active means well fitted curve in the direction sought with a large enough effect; inconclusive means small, poorly fitted or top-dose-only effect, or another doubt; inactive means no such curve, though single readings can be large; an effect the other way counts as inactive or inconclusive.
# How the values were obtained:
# [1] = qHTS of pediatric cancer cell lines to identify multiple opportunities for drug repurposing: Primary screen for OHS-50 cells (AID 1347103); details: OHS-50 osteosarcoma viability, CellTiter-Glo luminescence, 48 h; activity change, negative = cytotoxic: at 57.3 µM (top of the series); further: potency means the concentration at half of the fitted maximal effect; nearly all actives have a fitted effect of over 40% in size
# Summary of the method: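 Cells (500-1,000/well) rested 5 h, then received compounds for 48 h; metabolically active cells were measured by CellTiter-Glo luminescence. Final concentrations spanned up to 46 µM (MIPE, 11-point) or 0.59 nM-46 µM (NPC, 8-point) in primary screens, 11-point in follow-ups.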
# [2] = qHTS of pediatric cancer cell lines to identify multiple opportunities for drug repurposing: Primary screen for Rh41 cells (AID 1347108); further: nearly all actives have a fitted effect of over 70% in size; further: potency means the concentration at half of the fitted maximal effect;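 on activity change, negative = cytotoxic: luminescence drop marks cytotoxic hits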
# Summary of the method: (§1)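 Plated cells (500-1,000 per well, growth media) were allowed to settle for 5 hours, treated with compound dilutions for 48 hours, then lysed with CellTiter-Glo for 15 min at room temperature before luminescence reading.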
# [3] = qHTS of pediatric cancer cell lines to identify multiple opportunities for drug repurposing: Primary screen for RD cells (AID 1347104); further: nearly all actives have a fitted effect of over 55% in size; further: potency means the concentration at half of the fitted maximal effect
# Summary of the method: as §1
# [4] = qHTS of pediatric cancer cell lines to identify multiple opportunities for drug repurposing: Primary screen for MG 63 (6-TG R) cells (AID 1347105); details: MG 63 (6-TG R) viability, CellTiter-Glo, 48 h; activity change, negative = cytotoxic: at 46 µM (top of the series) unless noted; further: nearly all actives have a fitted effect of over 50% in size; further: potency means the concentration at half of the fitted maximal effect
# Summary of the method: as §1
# [5] = qHTS of pediatric cancer cell lines to identify multiple opportunities for drug repurposing: Primary screen for control Hh wild type fibroblast cells (AID 1347106); further: nearly all actives have a fitted effect of over 55% in size; further: potency means the concentration at half of the fitted maximal effect;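 on activity change, negative = cytotoxic: a drop in luminescence marks cytotoxicity and a rise apparent proliferation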
# Summary of the method: (§2)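 Viability after 48 h compound treatment at 37C, 500-1,000 cells/well, read as ATP luminescence with CellTiter-Glo. Primary screens used 11-point (MIPE, 0.78 nM-46 µM) or 8-point (NPC, 0.59 nM-46 µM) final concentrations; follow-up screens used 11-point dilutions.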
# [6] = qHTS of pediatric cancer cell lines to identify multiple opportunities for drug repurposing: Primary screen for Rh30 cells (AID 1347107); further: potency means the concentration at half of the fitted maximal effect; nearly all actives have a fitted effect of over 75% in size
# Summary of the method: as §2
# [7] = qHTS of pediatric cancer cell lines to identify multiple opportunities for drug repurposing: Confirmatory screen for A673 cells (AID 1347110); further: nearly all actives have a fitted effect of over 65% in size
# Summary of the method: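 A673 cells seeded at 500-1,000 cells/well, rested 5 h, then dosed; primary MIPE 11-point (0.78 nM to 46 µM), NPC (0.59 nM to 46 µM); confirmatory 11-point. CellTiter-Glo luminescence after 48 h.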
# [8] = qHTS of pediatric cancer cell lines to identify multiple opportunities for drug repurposing: Confirmatory screen for SK-N-MC cells (AID 1347111);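 further: potency means the concentration at half of the fitted maximal effect; cells exposed to compound for 48 h before the readout; nearly all actives have a fitted effect of over 70% in size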
# Summary of the method: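 SK-N-MC cells at 500-1,000 cells/well in growth media were pre-incubated 5 h, then exposed to compounds at 11-point dilutions for 48 h at 37 degrees C, 5% CO2. Viability was read as CellTiter-Glo luminescence.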
# [9] = qHTS of pediatric cancer cell lines to identify multiple opportunities for drug repurposing: Confirmatory screen for BT-12 cells (AID 1347112); further: potency means the concentration at half of the fitted maximal effect; nearly all actives have a fitted effect of over 55% in size
# Summary of the method: as §2
# [10] = qHTS of pediatric cancer cell lines to identify multiple opportunities for drug repurposing: Confirmatory screen for NB1643 cells (AID 1347109); details: NB1643 neuroblastoma cell viability; activity change, negative = cytotoxic: at 45.9 µM (top of the series) unless noted; further: potency means the concentration at half of the fitted maximal effect; nearly all actives have a fitted effect of over 45% in size
# Summary of the method: as §2
# Tags describe the fitted curve by direction and shape.
structure (smiles),measurement,setting,value
O=C(NC(=O)c1c(F)cccc1F)Nc1cc(Cl)c(OC(F)(F)C(F)C(F)(F)F)cc1Cl (stereo unspecified),Potency,[1],"inconclusive [cytotoxic, partial curve]"
same,Potency,[2],inactive
CC(=O)[O][Hg][c]1ccccc1,Potency,[3],active: 944 nM
same,Potency,[4],active: 2660 nM
same,Potency,[5],"inconclusive [cytotoxic, single point]"
same,Potency,[6],active: 2660 nM
COc1ccc(C(CN(C)C)C2(O)CCCCC2)cc1 (stereo unspecified),Potency,[3],"inconclusive [cytotoxic, partial curve, poor fit]"
C=CCN1CC[C@]23CCCC[C@H]2[C@H]1Cc1ccc(O)cc13,Potency,[3],inactive
Cc1ncsc1CCCl,Potency,[3],inactive
CCCOC(=O)c1cncn1C(C)c1ccccc1 (stereo unspecified),Potency,[3],inactive
CCCC(C)C1(CC)C(=O)N=C(S)NC1=O (stereo unspecified),Potency,[3],inactive
O=c1[nH]c2ccccc2n1C1CCNCC1,Potency,[3],inactive
CNC(C)Cc1ccccc1OC (stereo unspecified),Potency,[3],inactive
O=C(O)c1cc(Oc2ccc(C(F)(F)F)cc2Cl)ccc1[N+](=O)[O-],Potency,[3],inactive
CCN[C@@H](C)Cc1ccccc1,Potency,[3],inactive
CN1C[C@H](CNC(=O)OCc2ccccc2)C[C@@H]2c3cccc4c3c(cn4C)C[C@H]21,Potency,[3],"inconclusive [cytotoxic, single point]"
same,Potency,[4],inactive
CCCCCCCCCC(=O)O[C@H]1CC[C@H]2[C@@H]3CCC4=CC(=O)CC[C@@H]4[C@H]3CC[C@]12C,Potency,[3],inactive
CCC1(CC)C(=O)NC(=O)NC1=O,Potency,[3],inactive
COP(=S)(OC)Oc1ccc(Sc2ccc(OP(=S)(OC)OC)cc2)cc1,Potency,[3],inactive
CC(C)(C)CC(C)(C)c1ccc(O)cc1,Potency,[3],"inconclusive [cytotoxic, partial curve, poor fit]"
OC(O)C(Cl)(Cl)Cl,Potency,[3],inactive
CC(C)=CC1C(C(=O)OCN2C(=O)C3=C(CCCC3)C2=O)C1(C)C (stereo unspecified),Potency,[3],inactive
NCc1cccnc1,Potency,[3],inactive
O=C(Nc1ccccc1-c1ccc(Cl)cc1)c1cccnc1Cl,Potency,[3],inactive
CCOC(=O)CC(SP(=S)(OC)OC)C(=O)OCC (stereo unspecified),Potency,[3],inactive
O=[N+]([O-])/N=C1\NCCN1Cc1ccc(Cl)nc1,Potency,[3],inactive
CN1CC[C@]23c4c5ccc(O)c4O[C@H]2[C@@H](O)CC[C@H]3[C@H]1C5,Potency,[3],inactive
CC(C)NC(C)C,Potency,[3],inactive
C[C@@H]1CC[C@H]2[C@@H](C)C(=O)O[C@@H]3O[C@@]4(C)CC[C@@H]1[C@]32OO4,Potency,[3],"inconclusive [cytotoxic, partial curve, poor fit]"
CC[C@@H](C(N)=O)N1CCCC1=O,Potency,[3],"inconclusive [cytotoxic, partial curve]"
NNc1ccccc1,Potency,[3],inactive
O=C1CN=C(c2ccccc2)c2cc([N+](=O)[O-])ccc2N1,Potency,[3],inactive
Oc1ccc2[nH]cc(CCCCN3CC=C(c4ccccc4)CC3)c2c1,Potency,[3],"inconclusive [cytotoxic, single point]"
O=C1CCC[C@@H]2[C@H]3CCCN4CCC[C@@H](CN12)[C@@H]34,Potency,[3],inactive
CC[N+]1(CCOC(=O)C(O)(c2ccccc2)c2ccccc2)CCCCC1,Potency,[3],inactive
Cc1sc2c(c1C)C(c1ccc(Cl)cc1)=N[C@@H](CC(=O)OC(C)(C)C)c1nnc(C)n1-2,Potency,[3],active: 590 nM
same,Potency,[4],"inconclusive [cytotoxic, full curve]"
same,Potency,[5],"inconclusive [cytotoxic, full curve]"
same,Potency,[6],"inconclusive [cytotoxic, partial curve]"
same,Potency,[2],active: 743 nM
same,Potency,[7],inactive
same,Potency,[8],"inconclusive [cytotoxic, full curve]"
same,Potency,[9],"inconclusive [cytotoxic, partial curve, poor fit]"
C[C@H](CN1CCOCC1)C(C(=O)N1CCCC1)(c1ccccc1)c1ccccc1,Potency,[3],"inconclusive [cytotoxic, partial curve, poor fit]"
same,Potency,[4],"inconclusive [cytotoxic, partial curve, poor fit]"
same,Potency,[5],inactive
same,Potency,[6],"inconclusive [cytotoxic, partial curve]"
CC(=O)OCC1=C(C(=O)O)N2C(=O)[C@@H](N)[C@H]2SC1,Potency,[3],inactive
C1CCC(NC2CCCCC2)CC1,Potency,[3],inactive
O=C(O)c1ccc(=O)[nH]c1,Potency,[3],inactive
CCCCCC[C@H]1C(=O)O[C@H](C)[C@H](NC(=O)c2cccc(NC=O)c2O)C(=O)O[C@@H](C)[C@@H]1OC(=O)CC(C)C,Potency,[3],"inconclusive [cytotoxic, full curve]"
same,Potency,[4],"inconclusive [cytotoxic, partial curve]"
same,Potency,[5],inactive
same,Potency,[6],"inconclusive [cytotoxic, partial curve]"
same,Potency,[2],"inconclusive [cytotoxic, partial curve]"
same,Potency,[10],"inconclusive [cytotoxic, partial curve]"
same,Potency,[8],active: 46.5 nM
same,Potency,[9],"inconclusive [cytotoxic, full curve]"
O=S(=O)(F)Cc1ccccc1,Potency,[3],inactive
same,Potency,[4],"inconclusive [cytotoxic, full curve, poor fit]"
